Laboratory results: paper PMC6919601, “Identification of Plasmodium dipeptidyl aminopeptidase allosteric inhibitors by high throughput screening” (PLoS ONE, 2019)
Hit rate of the full screen: of about 110,000 compounds, about 230 (0.21%) showed an effect of 50% or more. Some of the results follow.
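Note: 30 min substrate incubation versus DMSO and 10 µM JCP410 controls.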

What follows are molecules tested against DPAP1 (Plasmodium falciparum, UniProt Q8IIJ9) (assay: primary screen, percent inhibition; read by cleavage of a fluorogenic dipeptide substrate; higher = more effect of the substance).
Sequence of DPAP1 (Q8IIJ9 whole entry, looked up): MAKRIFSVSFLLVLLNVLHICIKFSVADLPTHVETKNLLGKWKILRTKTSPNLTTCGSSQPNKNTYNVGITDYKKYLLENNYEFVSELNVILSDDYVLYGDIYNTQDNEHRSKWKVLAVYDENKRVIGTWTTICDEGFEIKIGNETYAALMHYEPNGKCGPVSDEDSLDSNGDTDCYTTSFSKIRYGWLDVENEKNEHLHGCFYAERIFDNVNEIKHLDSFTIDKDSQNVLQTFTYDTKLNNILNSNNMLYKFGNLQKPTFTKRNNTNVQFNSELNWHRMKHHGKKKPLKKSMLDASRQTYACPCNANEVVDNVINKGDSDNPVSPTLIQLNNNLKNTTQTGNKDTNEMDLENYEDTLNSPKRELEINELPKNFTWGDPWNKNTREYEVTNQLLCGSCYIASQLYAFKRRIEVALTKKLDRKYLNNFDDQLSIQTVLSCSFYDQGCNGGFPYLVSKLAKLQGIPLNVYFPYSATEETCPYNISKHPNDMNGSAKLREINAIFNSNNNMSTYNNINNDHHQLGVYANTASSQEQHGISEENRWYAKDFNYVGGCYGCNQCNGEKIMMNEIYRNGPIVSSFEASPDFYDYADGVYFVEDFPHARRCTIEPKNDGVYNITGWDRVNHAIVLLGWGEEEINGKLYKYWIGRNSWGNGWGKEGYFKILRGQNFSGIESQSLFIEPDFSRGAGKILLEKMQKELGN
Parameters: species or system P. falciparum D10 trophozoite lysates; single well
With Cc1ccc(C(C)C)c(OCc2nnc3c4cnn(Cc5ccccc5)c4ncn23)c1 the “% Inhibition @ 10 uM” value was -0.386%. With CCc1nc2cccnc2n1-c1ccc(CC(=O)NCCN(C)C)cc1 the “% Inhibition @ 10 uM” value was -2.56%. C=CCN1CN(CCc2ccccc2)CNC1=S was tested, and the “% Inhibition @ 10 uM” value was -3.74%. With COc1ccc(NC(=O)c2ccc([N+](=O)[O-])cc2C(=O)O)cc1 the “% Inhibition @ 10 uM” value was -4.96%. With COc1ccc(C(CC(=O)O)NC(=O)COc2cc(C)c(Cl)c(C)c2)cc1OC (centres unmarked) the “% Inhibition @ 10 uM” value was 2.7%. For O=C(Nc1ccccc1[N+](=O)[O-])c1cc2ccccc2oc1=O, the “% Inhibition @ 10 uM” value was 1.8%. For O=C(CNC(=O)C1CCCCC1)Nc1nc(CC23CC4CC(CC(C4)C2)C3)cs1, the “% Inhibition @ 10 uM” value was -1.47%. CCNc1nc(SC(C)C(=O)Nc2ccccc2)nc(N2CCOCC2)n1 (centres unmarked) was tested, and the “% Inhibition @ 10 uM” value was -4.01%. CC1CCC(N2CCC(N3CCCCC3)CC2)C1 (centres unmarked) was tested, and the “% Inhibition @ 10 uM” value was -3.8%. With O=C(CN1C(=O)S/C(=C/c2ccccc2Cl)C1=O)Nc1ccc(F)cc1 the “% Inhibition @ 10 uM” value was 7.85%. COc1ccccc1C1NC(=O)c2sc(=S)n(-c3ccccc3)c2N1 (centres unmarked) was tested, and the “% Inhibition @ 10 uM” value was 6.66%. For COc1ccc(CCNC(=O)c2cn(C3CCCC3)c(=O)c3c2c2ccccc2n3C)cc1OC, the “% Inhibition @ 10 uM” value was -1.58%. COc1ccc(-c2noc(CN(C(=O)C(c3ccccc3)c3ccccc3)C(C)C)n2)cc1 was tested, and the “% Inhibition @ 10 uM” value was -0.352%. In the case of CCOc1cc(CN2CCN(c3ccccn3)CC2)ccc1OC, the “% Inhibition @ 10 uM” value is reported as 0.605%. CCN1CCCC1CNC(=O)C1c2ccccc2C(=O)N(CCOC)C1c1cccs1 (centres unmarked) was tested, and the “% Inhibition @ 10 uM” value was -1.48%. Cc1ccc(CNC(=O)CCc2c(C)nc3c(c(C)nn3C(C)(C)C)c2C)cc1 was tested, and the “% Inhibition @ 10 uM” value was -4.24%. With CCc1ccc(CNC(=O)CCC(=O)n2ncc3cc(C)ccc32)cc1 the “% Inhibition @ 10 uM” value was -1.11%. For CCC1SC2=NC(C)=C(C(=O)OCCOC)C(c3ccc(OCc4ccccc4)cc3)N2C1=O (centres unmarked), the “% Inhibition @ 10 uM” value was 3.87%. For CCCc1nc(-c2ccc(-c3ccc(C)cc3)nc2OC)no1, the “% Inhibition @ 10 uM” value was 2.1%. For COc1ccc(-c2onc(C)c2C)cc1S(=O)(=O)NCCCN1CCCC1=O, the “% Inhibition @ 10 uM” value was 0.879%. CC(=O)NS(=O)(=O)c1cccnc1Nc1ccc(Cl)c(C(F)(F)F)c1 was tested, and the “% Inhibition @ 10 uM” value was -1.51%. Cc1cccc(NC(=O)C(CC(C)C)N2C(=O)c3ccccc3C2=O)c1 (centres unmarked) was tested, and the “% Inhibition @ 10 uM” value was -0.469%. With O=C(COc1nsnc1N1CCOCC1)Nc1ccc2c(c1)OCCO2 the “% Inhibition @ 10 uM” value was 1.93%. Sc1n[nH]c2nc3nc4ccccc4c-3nn12 was tested, and the “% Inhibition @ 10 uM” value was 3.43%. In the case of O=S1(=O)N=C(Nc2ccccc2Cl)c2ccccc21, the “% Inhibition @ 10 uM” value is reported as 4.26%. For O=C(c1cc2c(s1)-c1ccccc1OC2)N1CCN(c2ccccn2)CC1, the “% Inhibition @ 10 uM” value was 6.41%. CCN1CCN(C(=O)c2cnn(-c3ccccc3)c2-n2cccc2)CC1 was tested, and the “% Inhibition @ 10 uM” value was -7.1%. For COc1ccc(S(=O)(=O)N2CCC(C(=O)N3CCC(C)CC3)CC2)cc1OC, the “% Inhibition @ 10 uM” value was -9.24%. O=C1C2C3C=CC(C3)C2C(=O)N1Cc1ccco1 (centres unmarked) was tested, and the “% Inhibition @ 10 uM” value was 0.275%. For O=C(CC(O)(c1ccccc1)C(F)(F)F)c1ccccc1 (centres unmarked), the “% Inhibition @ 10 uM” value was 1.63%. For COc1ccc(C(=O)Nc2sc3c(c2C(N)=O)CCCCCC3)c(OC)c1, the “% Inhibition @ 10 uM” value was 28.3%. For CC(Oc1ccccc1F)C(=O)Nc1ccc2ccccc2c1 (centres unmarked), the “% Inhibition @ 10 uM” value was -7.08%. In the case of Cc1ccsc1CN(C(=O)c1ccco1)C1CCS(=O)(=O)C1 (centres unmarked), the “% Inhibition @ 10 uM” value is reported as 2.19%. In the case of CCCN1C(=O)c2[nH]nc(-c3ccccc3O)c2C1c1cc(Br)c(O)c(OC)c1 (centres unmarked), the “% Inhibition @ 10 uM” value is reported as 3.62%. In the case of CCOC(=O)c1c(NC(=O)C(F)(F)F)sc2c1CCN(C(=O)OCC)C2, the “% Inhibition @ 10 uM” value is reported as 6.23%. With Fc1ccc(N2CCN(Cc3c[nH]c4ccccc34)CC2)cc1 the “% Inhibition @ 10 uM” value was 2.23%. For CCN(CC)c1ccc2c(COC(C)=O)cc(=O)oc2c1, the “% Inhibition @ 10 uM” value was -0.13%. For CCCCCC(C#N)NC(=O)[C@H](CC(C)C)NC(=O)OCc1ccccc1 (some centres unmarked), the “% Inhibition @ 10 uM” value was 0.174%. In the case of COc1ccc(-c2noc(C(=O)NCc3ccc(F)cc3)n2)cc1OC, the “% Inhibition @ 10 uM” value is reported as 1.76%. With COc1ccc(C(=O)NCC(c2cccnc2)N(C)C)cc1 (centres unmarked) the “% Inhibition @ 10 uM” value was -2.29%. For Brc1ccc(SCCc2ccncc2)cc1, the “% Inhibition @ 10 uM” value was -1.29%. With Cc1cc(C(=O)NC(C)C)cc(S(=O)(=O)NC(C)C)c1C the “% Inhibition @ 10 uM” value was -3.92%. For COc1ccc(CCNC(=O)NC2CCCCC2)cc1, the “% Inhibition @ 10 uM” value was 0.795%. With CC(C)N(Cc1ccccc1)S(=O)(=O)c1ccc(Cl)cc1 the “% Inhibition @ 10 uM” value was -1.22%. For CCN1C(=O)c2ccccc2S1(=O)=O, the “% Inhibition @ 10 uM” value was 3.74%. With Cc1ccc(S(=O)(=O)N(CC(=O)Nc2ccc3c(c2)OCCO3)Cc2ccccc2F)cc1 the “% Inhibition @ 10 uM” value was 0.145%. CC1=C(C(=O)Nc2ccccc2C)C(c2cccc(Br)c2)NC(=O)N1 (centres unmarked) was tested, and the “% Inhibition @ 10 uM” value was -1.36%. With Nc1ncc(Cc2cccc3ccccc23)s1 the “% Inhibition @ 10 uM” value was 1.33%. With CCCCN(CC)CCNC(=O)CN1C(=O)CSc2c1c(C)nn2-c1ccccc1 the “% Inhibition @ 10 uM” value was 2.65%. With O=C1C2C3C=CC(C3)C2C(=O)N1c1cccc(Cl)c1 (centres unmarked) the “% Inhibition @ 10 uM” value was -0.996%. In the case of CCC(Cc1ccccc1)NC(=O)Cn1cc2c(n1)CCCC2 (centres unmarked), the “% Inhibition @ 10 uM” value is reported as -1.8%. CCN(CC)CCN(CC)Cc1c(F)cccc1Cl was tested, and the “% Inhibition @ 10 uM” value was -1.21%. In the case of O=C(Nc1ccc(F)cc1)c1ccc(Br)cc1, the “% Inhibition @ 10 uM” value is reported as -7.5%. In the case of Cc1ccc(N2CCN(c3ccc(NC(=O)CCC(=O)O)cc3)CC2)cc1, the “% Inhibition @ 10 uM” value is reported as 0.214%. With O=C(Nc1nc[nH]n1)c1ccco1 the “% Inhibition @ 10 uM” value was -1.46%. CC(C)[C@H](NC(=O)c1ccc(-c2ccccc2Cl)c(Cl)c1)C(=O)NCC#N was tested, and the “% Inhibition @ 10 uM” value was -5.04%. With COc1cccc(CN2CCN(Cc3cccnc3)CC2)c1 the “% Inhibition @ 10 uM” value was 0.76%. COc1cccc(C2C(C(=O)Nc3cccnc3)=C(C)Nc3nc(-c4cccc(C)c4)nn32)c1OC (centres unmarked) was tested, and the “% Inhibition @ 10 uM” value was -1.47%. In the case of COc1cc(C(CC(=O)N2CCC3(CC2)OCCO3)N2Cc3ccccc3C2=O)cc(OC)c1OC (centres unmarked), the “% Inhibition @ 10 uM” value is reported as -7.28%. For CC1Cc2cc(C(=O)C3=C(O)C(=O)N(Cc4ccco4)C3c3cccs3)ccc2O1 (centres unmarked), the “% Inhibition @ 10 uM” value was 2.43%. With Cn1c(=O)c2c(ncn2Cc2ccc(Cl)cc2Cl)n(C)c1=O the “% Inhibition @ 10 uM” value was 1.26%. With CC(=O)c1nnn(-c2ccc(F)c(Cl)c2)c1C the “% Inhibition @ 10 uM” value was -0.256%. For CCC[C@H](NC(=O)C1(NC(=O)N2CCN(C)CC2)CCCCC1)C(=O)c1nnc(-c2ccc(OC)cc2)o1, the “% Inhibition @ 10 uM” value was 1.7%. Cc1ccc(C(=O)Nc2sc3c(c2C(N)=O)CCCC3)cc1Br was tested, and the “% Inhibition @ 10 uM” value was 0.795%. With O=C(O)c1ccc2c(c1)C(=O)N(C(Cc1ccccc1)C(=O)O)C2=O (centres unmarked) the “% Inhibition @ 10 uM” value was -7.08%. COC(=O)C#CC(CC(C)C)NC(=O)[C@H](Cc1ccccc1)NC(=O)[C@H](CC(C)C)NC(=O)[C@H](CCc1ccccc1)NC(C)=O (some centres unmarked) was tested, and the “% Inhibition @ 10 uM” value was -3.14%. In the case of Cn1c(=O)c2c(nc(N3CCN(Cc4ccccc4)CC3)n2CC(=O)c2ccccc2)n(C)c1=O, the “% Inhibition @ 10 uM” value is reported as -1.24%. In the case of COc1ccc(/C=C2\S/C(=N/c3ccc(C(=O)O)cc3)N(C)C2=O)c(OC)c1, the “% Inhibition @ 10 uM” value is reported as 12.7%. For COc1cc(/C=C2/SC(N3CCC(C)CC3)=NC2=O)cc(OC)c1OC, the “% Inhibition @ 10 uM” value was -1.33%. Cc1ccc(CNC(=O)C2CCCN(c3nnc(C)c4c(C)n(-c5ccc(Cl)cc5)nc34)C2)o1 (centres unmarked) was tested, and the “% Inhibition @ 10 uM” value was 4.05%. In the case of COc1ccc(N/C=C(\C#N)C(=O)NC(=O)Cc2ccccc2)cc1, the “% Inhibition @ 10 uM” value is reported as -4.75%. For Cc1oc2ncnc(N3CCOCC3)c2c1C(=O)O, the “% Inhibition @ 10 uM” value was -5.76%. FC(F)(F)c1cc(-c2ccco2)nc(N2CCOCC2)n1 was tested, and the “% Inhibition @ 10 uM” value was 6.89%. With Cc1ccc(-n2cc(-c3ccccc3)c3c(NCCCO)ncnc32)cc1 the “% Inhibition @ 10 uM” value was -0.247%. With CCN(CC)C(=O)C1CCCN(Cc2ccc(OC)c(O)c2)C1 (centres unmarked) the “% Inhibition @ 10 uM” value was -4.35%. Cn1nc(C(=O)NCc2cccnc2)c2ccccc2c1=O was tested, and the “% Inhibition @ 10 uM” value was 3.93%. N#C/C(=C\c1ccc(Br)cc1)c1nc(-c2ccc(F)cc2)cs1 was tested, and the “% Inhibition @ 10 uM” value was -2.28%. Cc1ccc(C(=O)c2oc3ccccc3c2NC(=O)CC(C)C)cc1 was tested, and the “% Inhibition @ 10 uM” value was 7.02%. For Cc1ccccc1NC(=O)C1CCC(=O)N1 (centres unmarked), the “% Inhibition @ 10 uM” value was 0.132%. C=CCn1c(SCC(=O)Nc2cccc(OC)c2)nc2scc(-c3ccc(C)o3)c2c1=O was tested, and the “% Inhibition @ 10 uM” value was 0.851%. Cc1ccc(CCNC(=O)CSc2nnc(C)c3c(C)n(-c4ccccc4)nc23)cc1 was tested, and the “% Inhibition @ 10 uM” value was -7.67%. In the case of Cc1ccccc1-c1nc(CS(=O)(=O)CC(=O)NC2CCCC2)c(C)o1, the “% Inhibition @ 10 uM” value is reported as -0.138%. Cc1ccc(C(=O)c2cn(Cc3ccccc3F)c3nc(C)ccc3c2=O)cc1 was tested, and the “% Inhibition @ 10 uM” value was -2.5%. With CCC(NC(=O)C1CCN(c2ccc(C(C)=O)cc2)CC1)C(=O)c1nc2ccccc2o1 (centres unmarked) the “% Inhibition @ 10 uM” value was -6.56%. For COc1ccccc1N(Cc1cc2ccc(C)cc2nc1O)C(=O)c1cccnc1, the “% Inhibition @ 10 uM” value was -0.173%. O=c1/c(=C/c2ccc(OCc3ccccc3)cc2)sc2nc(-c3cccnc3)nn12 was tested, and the “% Inhibition @ 10 uM” value was 1.96%. With CCOc1ccc(/C=C2/N=C(c3cncc(Br)c3)OC2=O)cc1 the “% Inhibition @ 10 uM” value was 3.1%. COc1ccc(C(=O)NC2CC(C)(C)NC(C)(C)C2)cc1OC was tested, and the “% Inhibition @ 10 uM” value was 13.6%. For O=C(C1CCCN(S(=O)(=O)c2cccc3nonc23)C1)N1CCC(Cc2ccccc2)CC1 (centres unmarked), the “% Inhibition @ 10 uM” value was -0.0508%. In the case of CCOc1cc(C2CC(=O)Nc3c2c(=O)nc(SCc2ccccc2Cl)n3C)ccc1O (centres unmarked), the “% Inhibition @ 10 uM” value is reported as 2.25%. For CCN1C(=O)C(=CNc2ccc3[nH]ncc3c2)C(=O)N(CC)C1=O, the “% Inhibition @ 10 uM” value was 0.751%. In the case of CCc1ccc2nc(N(CCN(C)C)C(=O)CCS(=O)(=O)c3ccccc3)sc2c1, the “% Inhibition @ 10 uM” value is reported as -0.613%. With CCOC(=O)c1cnc2ccc(C(=O)OC)cc2c1NCc1cccnc1 the “% Inhibition @ 10 uM” value was -2.14%. Cc1ccc(NC(=O)CCS(=O)(=O)c2ccc(Br)cc2)nc1 was tested, and the “% Inhibition @ 10 uM” value was 1.2%. In the case of CC1=C(C#N)C(c2cccnc2)C2=C(O)CCCC2=N1 (centres unmarked), the “% Inhibition @ 10 uM” value is reported as -4.8%. For CCOC(=O)C1=C(C)N(C)C(=S)NC1c1ccccc1 (centres unmarked), the “% Inhibition @ 10 uM” value was -6.89%. With CCOc1cc(C(=O)Nc2noc3ccccc23)cc(OCC)c1OCC the “% Inhibition @ 10 uM” value was 37.8%. OC1(c2ccc(Br)cc2)CCN(CC2CC3C=CC2C3)CC1 (centres unmarked) was tested, and the “% Inhibition @ 10 uM” value was 3.48%.
